T1: RBFOX1 RRM (Homo sapiens, UniProt Q9NWB1 109-208)
T1 sequence: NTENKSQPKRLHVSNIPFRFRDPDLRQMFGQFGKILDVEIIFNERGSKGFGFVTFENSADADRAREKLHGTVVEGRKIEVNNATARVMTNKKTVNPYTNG

B1: CCGCUAG (DNA:RNA)
RNA: GGGAGACCGGAAUUCAGAUUGUCCCCGCUAGUUAAAUCCCGUCGUAGCCACCA
DNA 1: CAATCTGAATTCCGGTCTCCC
DNA 2: TGGTGGCTACGACGGGATT
B2: UACUGUC (DNA:RNA)
RNA: GGGAGACCGGAAUUCAGAUUGUCCUACUGUCUUAAAUCCCGUCGUAGCCACCA
DNA 1: CAATCTGAATTCCGGTCTCCC
DNA 2: TGGTGGCTACGACGGGATT
B3: GGAAUAU (DNA:RNA)
RNA: B1 RNA with C25G, C26G, G27A, C28A, G31U
DNA 1: CAATCTGAATTCCGGTCTCCC
DNA 2: TGGTGGCTACGACGGGATT
B4: GAAACGC (DNA:RNA)
RNA: B2 RNA with U25G, C27A, U28A, G29C, U30G
DNA 1: CAATCTGAATTCCGGTCTCCC
DNA 2: TGGTGGCTACGACGGGATT
B5: AUGGACC (DNA:RNA)
RNA: B1 RNA with C25A, C26U, C28G, U29A, A30C, G31C
DNA 1: CAATCTGAATTCCGGTCTCCC
DNA 2: TGGTGGCTACGACGGGATT
B6: AAUCGAA (DNA:RNA)
RNA: B1 RNA with C25A, C26A, G27U, U29G, G31A
DNA 1: CAATCTGAATTCCGGTCTCCC
DNA 2: TGGTGGCTACGACGGGATT
B7: CUAAACU (DNA:RNA)
RNA: B1 RNA with C26U, G27A, C28A, U29A, A30C, G31U
DNA 1: CAATCTGAATTCCGGTCTCCC
DNA 2: TGGTGGCTACGACGGGATT
B8: CAUCCGC (DNA:RNA)
RNA: B1 RNA with C26A, G27U, U29C, A30G, G31C
DNA 1: CAATCTGAATTCCGGTCTCCC
DNA 2: TGGTGGCTACGACGGGATT
B9: UACUCCG (DNA:RNA)
RNA: B2 RNA with G29C, U30C, C31G
DNA 1: CAATCTGAATTCCGGTCTCCC
DNA 2: TGGTGGCTACGACGGGATT

Changes are numbered by the printed parent chain; changes in the protein carry UniProt numbers. This is one part of the list.

For this test, the target named is T1, RBFOX1 RRM. Put plainly: EMSA; HiTS-Eq, 1 nM pool, 10 min; buffer printed only for the single-RNA assays: 10 mM Tris pH 7.5, 150 mM NaCl, 3.4 mM EDTA, 0.001% NP-40, 30 C. As to conditions: tags: His6 N-terminal (pET28a); label: 5' 32P. An outline of the steps: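 A pool of RNA with 7 randomized nucleotides, 5′-radiolabelled and with DNA-annealed flanks, was equilibrated at 1 nM for 10 min in 50 µL with purified RbFox RRM, wild type or mutant, across increasing protein concentrations. Free RNA was separated by 8% native PAGE, excised, reverse-transcribed, barcoded by PCR and sequenced. Relative association constants were obtained from read-count changes of each RNA species versus the control reaction and normalised to the cognate motif.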
Regarding B1, the binding signal was 0.0146 KA relative to UGCAUGU.
Consider B2, for which the binding signal is 0.0158 KA relative to UGCAUGU.
For the molecule B3, the binding signal is 0.00795 KA relative to UGCAUGU.
B4: the binding signal was 0.00639 KA relative to UGCAUGU.
For B5, the binding signal is 0.0115 KA relative to UGCAUGU.
The figure for B6 is 0.00572 KA relative to UGCAUGU; for B7 it is 0.0029 KA relative to UGCAUGU; for B8 it is 0.00206 KA relative to UGCAUGU.
The figure for B9 is 0.00858 KA relative to UGCAUGU.
